Measurements taken from PubChem BioAssay AID485313 (National Center for Advancing Translational Sciences (NCATS), 2010).
About 7,600 (2.4%) of roughly 320,000 compounds were called active. Inconclusive means that the source gave no clear call. Such entries were picked first, then a sample of the others. The call rests on the fitted dose curve; in most records, active means well fitted activation curve with a large enough effect; inconclusive means small, poorly fitted or top-dose-only effect; inactive means no such curve, though single readings can be large or run the other way. No potency is given beside an inconclusive call; the fits are too rough. Some structures have more than one record in an assay (separate samples or runs), and their calls can disagree.

Assay: qHTS Assay for NPC1 Promoter Activators; further: nearly all actives have a fitted effect of over 60% in size;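 on activation: reporter is driven by a mutant NPC1 promoter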
Conditions: Huh7 NPC1 promoter luciferase reporter, 24 h; series mostly up to 9.22 µM
How it was run: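 NPC1 promoter–luciferase Huh7 cells; 24 h compound; luminescence.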
Potency means the concentration at half of the fitted maximal effect; tags describe the fitted curve by direction and shape.

SMILES	Potency
Cc1cc(C(=O)Nc2nnc(C(F)(F)F)s2)cs1	inconclusive [activator, single point]
COc1ccccc1OCC(=O)Nc1ccc2c(c1)OCCO2	inconclusive [activator, single point]
COCC1CCN(C(=O)c2cc(COc3cc(C)c(Cl)c(C)c3)on2)C1 (stereo not given)	inconclusive [activator, single point]
COc1cc2c(cc1OC)CN(Cc1cc(=O)oc3cc(C)c(Cl)cc13)CC2	inactive
COc1ccc(C(=O)Nc2cc(OC)ccc2OC)cc1	inactive
COc1ccc2cc(C(N)=O)c(=Nc3ccc(C)cc3)oc2c1	inconclusive [activator, single point]
COc1ccc(-c2cc(C(=O)N3CCCCCC3)no2)cc1OC	inconclusive [activator, partial curve]
COc1ccc(/C(N)=N/OC(=O)c2ccc3c(c2)OCO3)cc1	inconclusive [activator, single point]
CC(C)OC(=O)c1cccc(NC(=O)c2ccccc2)c1	inconclusive [activator, single point]
CCn1nc(NC(=O)C(C)C)c2cc3cccc(C)c3nc21	inactive
CN(c1ccccc1)S(=O)(=O)c1cccc(C(=O)OCC(=O)NCCCN2CCCC2=O)c1	inactive
CCCOc1ccc(C(=O)NC(=S)Nc2nc3ccccc3s2)cc1	inconclusive [activator, single point]
O=C(O)c1ccc(N/N=C/c2ccc(-c3ccccc3Cl)o2)cc1	inconclusive [activator, full curve]
COC(=O)C(NC(C)=O)(Nc1cc(C)ccn1)C(F)(F)F (stereo not given)	inactive
COC(=O)c1ccc(CNC(=O)c2ccc3oc(C(C)C)nc3c2)cc1	inconclusive [activator, partial curve]
CC1CCc2nc(/C(C#N)=C/c3ccncc3)sc2C1 (stereo not given)	active: 2.82 µM
C=CCn1cccc(C(=O)Nc2ccc(N(C)C)cc2)c1=O	active: 3.55 µM
CC(=O)C(C)n1c(CN2CCN(C(=O)c3ccco3)CC2)nc2c1c(=O)n(C)c(=O)n2C (stereo not given)	inactive
COc1cc(OC)cc(C(=O)O/N=C(\N)c2cccc(C)c2)c1	inconclusive [activator, partial curve]
Nc1nc2ccc(OC(F)(F)F)cc2s1	active: 10.3 µM
COc1ccc2oc(C(=O)Nc3ccccc3N3CCOCC3)c(C)c2c1	inconclusive [activator, single point]
Cn1cc(C(=O)N/N=C/C(Br)=C\c2ccccc2)ccc1=O	inactive
COCCN(CCOC)C(=O)c1ccc(CSc2nc3ccccc3s2)cc1	inactive
O=C(NC1CCCCC1)c1cc(-c2cccc(Cl)c2)on1	inconclusive [activator, partial curve]
O=c1[nH]c2ccc(F)cc2[nH]c1=O	inactive
Nc1cc(C(=O)OCC(=O)N2CCC(Cc3ccccc3)CC2)ccc1Cl	inactive
Cc1cc(Br)c(NC(=O)CN(C)CCOc2ccccc2)c(Br)c1	inconclusive [activator, single point]

SMILES	Potency
Cc1ccccc1OCC(=O)Nc1ccc2c(c1)Cc1ccccc1-2	inactive
Cc1csc(NC(=O)Cc2ccccc2Cl)n1	inconclusive [activator, single point]
Cc1cc(OCC(=O)N2CCOCC2)ccc1[N+](=O)[O-]	active: 3.16 µM
CCn1cc(C(=O)Nc2ccccc2C(=O)OC)c(=O)c2ccc(C)nc21	active: 0.562 µM
Cn1c(-c2ccc(CN3CCCCC3)o2)nc2ccccc21	inconclusive [activator, partial curve]
O=c1c2ccccc2nc2ccc(NCc3ccco3)nn12	inconclusive [activator, partial curve]
c1ccc(CSc2nnc(-c3c[nH]c4ccccc34)o2)cc1	inconclusive [activator, single point]
Cc1cc(C(=O)N/N=C/c2ccc(C)s2)n[nH]1	active: 3.98 µM
Cc1cc(C)cc(OCC(=O)Nc2cccc(C(=O)O)c2)c1	inconclusive [activator, partial curve]
CCc1cc2c(=O)c(-c3nc4ccccc4[nH]3)coc2c(CN2CCCCC2)c1O	inactive
O=C(NC(=S)Nc1ccccc1[N+](=O)[O-])c1ccccc1	inconclusive [activator, single point]
CCOC(=O)c1cn(-c2ccccc2)nc1-c1cccnc1	inconclusive [activator, single point]
O=c1c(-c2ccc3c(c2)OCCO3)coc2cc(OC3OC(CO)C(O)C(O)C3O)ccc12 (stereo not given)	active: 0.562 µM
COc1ccc(-c2cc3nc4n(c(=O)c3s2)CCC4)cc1	active: 0.447 µM
COc1cccc(CN(C)C(=O)c2ccccc2Sc2ccccc2C#N)c1OC	active: 0.316 µM
O=C(CSCc1cccs1)N1CCCC1	inconclusive [activator, partial curve, poor fit]
CCOc1ccc(NC(=O)c2ccncc2)cc1	inactive
CC(C)NC(=O)c1nc2ccccc2s1	inactive
Cc1cccnc1Nc1nc(-c2ccc(O)cc2O)cs1	inconclusive [activator, single point]
Cc1nc(-c2ccccc2)sc1-c1ccnn1C	inconclusive [activator, single point]
CN(C)c1ccc(C(=O)/C=C/c2ccccc2)cc1	active: 3.98 µM
O=C(NCc1ccco1)c1cc2c(s1)CCCCC2	active: 3.98 µM
Cc1nc2ccc(NC(=O)c3cncc(Br)c3)cc2s1	inconclusive [activator, single point]
O=C(NCCc1ccc2c(c1)OCCO2)c1ccccc1F	inconclusive [activator, single point]
COc1ccccc1NC(=O)c1c[nH]c2ccccc12	inconclusive [activator, partial curve]
COc1cc(/C=N/N=C2/NC(=O)C(c3ccccc3)S2)ccc1O (stereo not given)	inactive
COc1cccc(C(=O)Nc2nnc(SCC(=O)NC3CC3)s2)c1	inconclusive [activator, single point]

SMILES	Potency
NC(=O)c1ccccc1OCc1nc2ccccc2s1	inconclusive [activator, single point]
Cc1cc(OCc2cc(C(=O)N(C)Cc3ccccn3)no2)cc(C)c1Cl	active: 3.98 µM
O=[N+]([O-])c1ccc(/C=N/NC2=NS(=O)(=O)c3ccccc32)cc1	inactive
COc1ccc(CNC(=O)C(=O)NCC2OCCN2S(=O)(=O)c2ccc(F)cc2)cc1 (stereo not given)	inconclusive [activator, single point]
CCOC(=O)N1CCN(C(=O)CSCC(=O)Nc2nc(-c3ccc(-c4ccccc4)cc3)cs2)CC1	inconclusive [activator, single point]
OC(COc1ccc(Cl)cc1)CSc1ccccn1 (stereo not given)	inconclusive [activator, partial curve]
O=C(Nc1nc2ccc([N+](=O)[O-])cc2s1)C1CCCO1 (stereo not given)	inconclusive [activator, partial curve]
CCc1ccc(NC(=O)CSc2nnnn2C)cc1	inconclusive [activator, partial curve]
CC(C)(C)NCC(O)COc1cccc2c1CCC(=O)N2 (stereo not given)	inactive
CC1=CN2C(=N)/C(=C/c3ccc(Sc4ccc(Cl)cc4)o3)C(=O)N=C2S1	inactive
COc1ccc(C(=O)Nc2ccccc2C(=O)N/N=C/c2ccccc2OC)cc1	inconclusive [activator, partial curve]
Nc1ccc(-c2nc3ncccc3o2)cc1	inconclusive [activator, single point]
CCOc1ccc(NC(=O)CSc2nccn2Cc2ccco2)cc1	inconclusive [activator, single point]
O=C(COC(=O)c1ccccc1)c1ccc(Br)cc1	active: 2.24 µM
O=C(CCn1c(=O)oc2ccccc21)Nc1ccc2c(c1)OCCO2	inconclusive [activator, single point]
Fc1ccccc1N=C1NN=C(c2ccccc2)CS1	active: 2.51 µM
c1ccc(C2=NNC(=NCc3ccc4c(c3)OCO4)SC2)cc1	inconclusive [activator, single point]
CN(C)C(=O)N1CCN(c2nc(-c3ccccc3)cs2)CC1	active: 2.24 µM
CCNc1ccccc(-c2ccc3ccccc3n2)c1=O	inconclusive [activator, partial curve]
COc1ccc(OCc2cc(C(=O)N(C)CC3CCCCO3)no2)c(Cl)c1 (stereo not given)	inconclusive [activator, single point]
O=C(Nc1nccs1)c1ccc2ccccc2n1	active: 3.98 µM
c1ccc2nc3c(nc2c1)[nH]c1ccccc13	active: 3.16 µM
O=C(c1cnn2ccccc12)N1CCc2ccccc21	active: 3.16 µM
CSCCNC(=O)c1ccc2nc(C3CCCCC3)oc2c1	inconclusive [activator, single point]
O=C(Nc1ccc(N2CCCC2=O)cc1)c1cncc(Br)c1	inconclusive [activator, single point]
O=C(NCc1ccccn1)Nc1ccc(Br)cc1Cl	inconclusive [activator, partial curve]
